The source of these data is the RNAGym collection of RNA variant scans (doi:10.7554/elife.90254).

Read counts are not given, so values of variants with three or more changes are uncertain.

To fix the notation:
B1: LINE1-mini (parent)
chain: GGCAGAGCUCAACACAGCGUGGCAAAGUGGCUGUGGCUAGACUGCC

This series covers variants of B1. As to the kind of experiment: self-cleavage, relative activity (ratio to wild type); higher = more cleavage; in vitro, sequencing; the parent is a self-cleaving ribozyme.
Consider GGCAGAGCGCAACACUGCGUGGCAAAGUGGCUGUGGAUAGACUGCC [U9G A16U C37A], for which the self-cleavage is 0.05.
As to GGCAGAGCCCAACAUAGCGUGGCAAAGUGGCUGUGGCUAGACUGGC [U9C C15U C45G], the self-cleavage stood at 0.02.
The result for GGCAGAGCCCAACACAGCGCUGCACAGUGGCUGUGGUUAGACUGAC [U9C U20C G21U A25C C37U C45A] reads 0.
Regarding GGCAGAGCGGAACACAGCGUGGCAAAGUGGCUGUGGCUAGACUGCG [U9G C10G C46G], the self-cleavage is 0.06.
For the variant GGCAGAGCGUAAAACAGCGUGGCAAAGUGGCUGUGGCUAGACUGCA [U9G C10U C13A C46A], the self-cleavage is 0.06.
The result for GGCAGAGCGCAACACAGCGUGGCAAUGUGGCUGUUGCUAGACUGCC [U9G A26U G35U] reads 0; that for GGCAGAGCCCAACAUAGCCUGGCAAAGUGGCUCUGGCUAGGCUUGC [U9C C15U G19C G33C A41G G44U C45G], 0.
The figure for GGCAGAGCCCAACACAGUGUCGCAAAGUGGCUGUGACUAGACUGCC [U9C C18U G21C G36A] is 0.08; for GGCAGAGCCCAACACAGCGCCGCAAAGUGGCUGUGGCUAGACUGCC [U9C U20C G21C] it is 0.08; for GGCAGAGCGGAACACAGAGUGGCAAAGCGCCUGUGGCUAGAGUGCC [U9G C10G C18A U28C G30C C42G] it is 0.01.
The figure for GGCAGAGCGGAACACAGCGUGGCAAAGUGGCUGUGACUAGACUGCA [U9G C10G G36A C46A] is 0.
As for GGCAGAGCCCAACACAGCGUGGCAAAGUUGUUGUGGCUAGACUGCC [U9C G29U C31U], the self-cleavage came to 0.01.
On to GGCAGAGCCCAACACAGCGCGGCAAAGUGGCAGUGGCUAUGCUGCC [U9C U20C U32A G40U A41G], for which the self-cleavage is 0.02.
As to GGCAGAGCGCAACUCAGCGUGGCAGAGUGGCUGUGGCUAGACUCCC [U9G A14U A25G G44C], the self-cleavage amounted to 0.04.
The figure for GGCAGAGCGCAGCACAGCGUGCCAAAGUGGCUGUGGAUAGACUGCC [U9G A12G G22C C37A] is 0.13; for GGCAGAGCGCUACACAUCGUGGCAAAGUGUCUGUGGCUAGACUGCC [U9G A11U G17U G30U] it is 0.02.
Turning to GGCAGAGCGUAACACAGCGUGGCAAAGUAGCUGUGGCUAGACUGCC [U9G C10U G29A], the self-cleavage was 0.07.
GGCAGAGCGCACCACAGCUAGGCAACGUGGCUGUGGCUAGACUGCC [U9G A12C G19U U20A A26C]: the self-cleavage worked out at 0.02.
The result for GGCAGAGCCCAACACAGCGUGGCAAAGUGGCUGAGGCUAGAAUGCC [U9C U34A C42A] reads 0.01.
The figure for GGCAGAGCCCAACACAGCGUCGCAAAGUGGCUGUAGCUAGACUGCC [U9C G21C G35A] is 0.09; for GGCAGAGCGUAACACAGCGUGGCAAAGUGGCUGUGGUUAGACUGCC [U9G C10U C37U] it is 0.02; for GGCAGAGCGCAAAACAGCGUGGCAAAUUGGCUGUGGCUAGACUGCC [U9G C13A G27U] it is 0.12.
The figure for GGCAGAGCGCAACACUGCAUGGCAAAGUGGAUGUGGCUAGACUGCC [U9G A16U G19A C31A] is 0.01.
For GGCAGAGCCCAACACAGCGUGGCAAAGUGGCUGUGGCUAGACAGGC [U9C U43A C45G], the self-cleavage turned out to be 0.01.
The figure for GGCAGAGCGCACCACAGCGUGGCGAAGUGGCUGUGGUUAGACUGCC [U9G A12C A24G C37U] is 0; for GGCAGAGCGUAACACAGCGUGGCAAACUGGCUGUUGCUAGGCAGCC [U9G C10U G27C G35U A41G U43A] it is 0.02.
The result for GGCAGAGCGCAACACAGCGUGGCACAGUGGCUGUGGCUGGACUGCC [U9G A25C A39G] reads 0.03.
The result for GGCAGAGCCCAACACAGCGCGGCAAAGAGUCUGUGGCUAAACAGCC [U9C U20C U28A G30U G40A U43A] reads 0; that for GGCAGAGCCCAACACAGCGUGGCAAAGUGGCUGUUGCUAGACCGGC [U9C G35U U43C C45G], 0.02.
As to GGCAGAGCGCUACACAGCGUGCCAACGUAGAUGUGGCUAGACUGCC [U9G A11U G22C A26C G29A C31A], the self-cleavage was 0.01.
Turning to GGCAGAGCGCAACACAGCGUGGCGGAGUGGCUGUGGCUAGACUGCC [U9G A24G A25G], the self-cleavage is 0.03.
As to GGCAGAGCCCAACACAGCGUGGCAAAGUGGCUGUGGCUAUACAGCC [U9C G40U U43A], the self-cleavage was found to be 0.02.
The figure for GGCAGAGCCCAACACAGCGUCGCAAAGUGGCUGUAGCUAGACUGGC [U9C G21C G35A C45G] is 0.01; for GGCAGAGCGAAACACAGCGUGGCAAAUUGGCUUUGGCUAGACUGCC [U9G C10A G27U G33U] it is 0.11; for GGCAGAGCCCAACACAGCUUGGCCAAGUGGCUGUGGCUAGACUGCC [U9C G19U A24C] it is 0.21.
With GGCAGAGCGCAACACAGCGUGGCAUAGUGGCUGUGGCGAGACUGCC [U9G A25U U38G], the self-cleavage turned out to be 0.
The figure for GGCAGAGCGCGAGACAGCGUGGCAAAGUGGCUGUGGCUAGACUGCC [U9G A11G C13G] is 0.01.
The result for GGCAGAGCCCAACACAGCGUGGCAAAUUGACUGUGGAUAGACUGAC [U9C G27U G30A C37A C45A] reads 0.01; that for GGCAGAGCCCAACACAUCUCGGCAAAGUGGCUAUGGCUUGACUGCC [U9C G17U G19U U20C G33A A39U], 0.01.
On to GGCAGAGCGCAUCACAGCGUGGCAAACUGGCUGUCGCUAGACUGCC [U9G A12U G27C G35C], for which the self-cleavage came out at 0.01.
The result for GGCAGAGCGGAACACAGAGUGGCAAAGUGCCUGUGGCUAGACUGCC [U9G C10G C18A G30C] reads 0.01; that for GGCAGAGCCCAACACAGCGUGGCAAAGUGGCUGUAGCUAGACUGGC [U9C G35A C45G], 0.01.
The result for GGCAGAGCCCAACACAGCGUGUCCAAGUGGAUGUGGCUAGACAGCC [U9C G22U A24C C31A U43A] reads 0.01; that for GGCAGAGCCCAACACAGCGUGGCAAAUUGGCUGUUGCUAGACUGCC [U9C G27U G35U], 0.02; that for GGCAGAGCCCAACACAGAGUGGCAAAGUGGCUGUGGCUAGACUGCA [U9C C18A C46A], 0.03.
For the variant GGCAGAGCCCAACACAGCGUGGCAAAGUGGCUGUCGCUAGUCUGCC [U9C G35C A41U], the self-cleavage was 0.04.
The result for GGCAGAGCCCAACACAGCUUGGCAUAGUGGCUGUGGCUAGACUUCC [U9C G19U A25U G44U] reads 0.01; that for GGCAGAGCGCAUCACAGCGUGGCAAAGUGGCUGUGACUAGACUGCC [U9G A12U G36A], 0.03; that for GGCAGAGCGCAACACAGCGUGGCAAAGUGGCUGUGGCUGGACUGCG [U9G A39G C46G], 0.01.
For GGCAGAGCGCUACACAGCAUGGCAAAGUGGCUGUGAGUAGACUGCC [U9G A11U G19A G36A C37G], the self-cleavage came out at 0.01.
Consider GGCAGAGCGCAACACCGCGUGGCAAAGUGGCUGUUGCUAGUCUGCC [U9G A16C G35U A41U], for which the self-cleavage came out at 0.02.
On to GGCAGAGCGCAUCACAGCGUGGCAAAGUGGCUGUGGCUAGAGUACC [U9G A12U C42G G44A], for which the self-cleavage is 0.07.
As to GGCAGAGCCCAACACAGCGUGGUAAAGUGGCUGUGGCUUGACUGCC [U9C C23U A39U], the self-cleavage stood at 0.21.
With GGCAGAGCGCAACACCGCGUGGCUAAGUGGCUGUGGCUAGACCGCC [U9G A16C A24U U43C], the self-cleavage stood at 0.02.
Turning to GGCAGAGCCCAACACAGCGUAGCAAAGUGGCUGUGGGUAGACUGCC [U9C G21A C37G], the self-cleavage amounted to 0.08.
Take GGCAGAGCGAAACACAGCGUGGCAGACUGGCUGUGGCUAGAGUACC [U9G C10A A25G G27C C42G G44A]: the self-cleavage amounted to 0.
